Over roughly 81,000 sequences, “one-hybrid fitness for binding NBS DNA” has its median near -0.1; the highest 2% begin near 0.36. The list shows a part of the results.
B1: Caulobacter ParB omega fusion; a variant is named by its letters at X, in order, B8GW30 (parent)
chain: MESVVVGEPGMSEGRRGLGRGLSALLGEVDAAPAQAPGEQLGGSREAPIEILQRNPDQPRRTFREEDLEDLSNSIREKGVLQPILVRPSPDTAGEYQIVAGERAWRAAQRAGLKTVPIMVRELDDLAVLEIGIIENVQRADLNVLEEALSYKVLMEKFERTQENIAQTIGKSXSHVANXMRLLXLPDEVQSYLVSGELTAXHARAIAAAADPVALAKQIIEGGLSVRETEALARKAPNLSAGKSKGGRPPRVKDTDTQALESDLSSVLGLDVSIDHRGSTGTLTITYATLEQLDDLCNRLTRGI

Variants of: B1
Assay: one-hybrid fitness for binding NBS DNA (the Noc-binding site; scaled: cognate 1, non-cognate 0); higher = stronger binding
Conditions: with NBS DNA site
Summary of the method: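 Fitness is the rescaled log change in variant-to-wild-type read ratio, measured by Illumina sequencing of plasmids before and after bacterial one-hybrid selection. The scale puts cognate at 1 and non-cognate at 0. Selection of Caulobacter ParB libraries, four specificity codons randomised, took place in E. coli USO with a HIS3 reporter, site 19 bp from the promoter, over 48 hours at 37°C on M9-minus-histidine with 0.1 mM IPTG and 5 mM 3-AT.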

Variant | one-hybrid fitness for binding NBS DNA
QILW | ≤ 0.2
PGFF | ≤ 0.2
ADRP | ≤ 0.2
MVKY | ≤ 0.2
CAVS | ≤ 0.2
MYLG | ≤ 0.2
RSLL | ≤ 0.2
IKDN | ≤ 0.2
NVKW | ≤ 0.2
CKCG | ≤ 0.2
TRKE | ≤ 0.2
AIFL | ≤ 0.2
DMWV | ≤ 0.2
FAAR | ≤ 0.2
KQSN | ≤ 0.2
YRRD | ≤ 0.2
EIVT | ≤ 0.2
TQTG | ≤ 0.2
SKDV | ≤ 0.2
HAGV | ≤ 0.2
YNER | ≤ 0.2
HCTL | ≤ 0.2
PQKT | ≤ 0.2
THYS | ≤ 0.2

Variant | one-hybrid fitness for binding NBS DNA
WTHL | ≤ 0.2
PPIA | ≤ 0.2
PAIG | ≤ 0.2
IPSM | ≤ 0.2
NYAS | ≤ 0.2
LWGM | ≤ 0.2
RYLH | ≤ 0.2
QTTR | 0.794
HVTN | ≤ 0.2
HDGT | ≤ 0.2
RKMC | 0.238
DLTC | ≤ 0.2
PFLT | ≤ 0.2
RTTS | 0.484
QRAS | 0.684
YPVG | ≤ 0.2
RQKW | ≤ 0.2
TPNG | ≤ 0.2
PGVT | ≤ 0.2
QCYF | ≤ 0.2
YLPS | ≤ 0.2
QRFW | ≤ 0.2
QAQG | ≤ 0.2
SSGA | ≤ 0.2

Variant | one-hybrid fitness for binding NBS DNA
CVRS | ≤ 0.2
EVAG | ≤ 0.2
AQCT | ≤ 0.2
DQGR | ≤ 0.2
HDWG | ≤ 0.2
QKWF | ≤ 0.2
DAAM | ≤ 0.2
YIWS | ≤ 0.2
ANAL | ≤ 0.2
REHE | ≤ 0.2
TDKY | ≤ 0.2
QCTD | ≤ 0.2
WAGR | ≤ 0.2
QHVI | ≤ 0.2
ANAC | ≤ 0.2
KLSY | ≤ 0.2
VNAF | ≤ 0.2
GSPT | ≤ 0.2
LDHK | ≤ 0.2
HYLV | ≤ 0.2
HENL | ≤ 0.2
GGGN | ≤ 0.2
RWLK | ≤ 0.2
KMYT | ≤ 0.2

Variant | one-hybrid fitness for binding NBS DNA
MAIH | ≤ 0.2
RRKC | 0.375
VLIF | ≤ 0.2
CNPS | ≤ 0.2
QNAH | ≤ 0.2
CKRA | ≤ 0.2
EVAR | ≤ 0.2
RQQK | ≤ 0.2
AGKR | ≤ 0.2
NSRG | ≤ 0.2
RCLM | ≤ 0.2
LMTL | ≤ 0.2
DDTD | ≤ 0.2
RDML | ≤ 0.2
SALR | ≤ 0.2
AGGV | ≤ 0.2
SQTD | ≤ 0.2
AAYN | ≤ 0.2
AWPF | ≤ 0.2
PAEC | ≤ 0.2
GTAR | ≤ 0.2
YQRV | ≤ 0.2
RFGS | ≤ 0.2
WHEL | ≤ 0.2

Variant | one-hybrid fitness for binding NBS DNA
PNKC | ≤ 0.2
HNKE | ≤ 0.2
LFTT | ≤ 0.2
KVYT | ≤ 0.2
FDHR | ≤ 0.2
KKRN | ≤ 0.2
PDSI | ≤ 0.2
HSVE | ≤ 0.2
CDQK | ≤ 0.2
SRFE | ≤ 0.2
VPKY | ≤ 0.2
LCLL | ≤ 0.2
RIGK | ≤ 0.2
FPHC | ≤ 0.2
RNRF | ≤ 0.2
WASQ | ≤ 0.2
EGNR | ≤ 0.2
VCVT | ≤ 0.2
QRTE | 0.289
QTHP | ≤ 0.2
HYTP | ≤ 0.2
TMEN | ≤ 0.2
ADLD | ≤ 0.2
PKQL | ≤ 0.2

Variant | one-hybrid fitness for binding NBS DNA
TESY | ≤ 0.2
DPWT | ≤ 0.2
RKSQ | ≤ 0.2
VYTP | ≤ 0.2
TQKY | ≤ 0.2
GQMT | ≤ 0.2
PHVS | ≤ 0.2
MDWV | ≤ 0.2
HRCS | ≤ 0.2
ADVE | ≤ 0.2
KWAT | ≤ 0.2
SCMC | ≤ 0.2
FYTS | ≤ 0.2
PFNV | ≤ 0.2
HYPW | ≤ 0.2
RRLN | 0.23
AQGT | ≤ 0.2
KMCS | ≤ 0.2
KQMN | ≤ 0.2
LFGV | ≤ 0.2
RHMK | ≤ 0.2
PANR | ≤ 0.2
KRPP | ≤ 0.2
WVLG | ≤ 0.2

Variant | one-hybrid fitness for binding NBS DNA
SEMV | ≤ 0.2
FCRC | ≤ 0.2
VSTC | ≤ 0.2
MLVC | ≤ 0.2
FWVR | ≤ 0.2
HADS | ≤ 0.2
WAAM | ≤ 0.2
QEAK | ≤ 0.2
YPLD | ≤ 0.2
LWTW | ≤ 0.2
VQSG | ≤ 0.2
TSRQ | ≤ 0.2
LKFC | ≤ 0.2
PCSG | ≤ 0.2
FMLY | ≤ 0.2
KLDW | ≤ 0.2
ANCL | ≤ 0.2
RVEP | ≤ 0.2
PQEY | ≤ 0.2
YCWI | ≤ 0.2
TEHK | ≤ 0.2
EDRC | ≤ 0.2
FYTV | ≤ 0.2
HMVS | ≤ 0.2

Variant | one-hybrid fitness for binding NBS DNA
YRKN | ≤ 0.2
MWVV | ≤ 0.2
MTKV | ≤ 0.2
MLPW | ≤ 0.2
CPSS | ≤ 0.2
TVTW | ≤ 0.2
ILEC | ≤ 0.2
KRNN | ≤ 0.2
QFMS | ≤ 0.2
ECLD | ≤ 0.2
SPGV | ≤ 0.2
AGMM | ≤ 0.2
PQTF | ≤ 0.2
ECNG | ≤ 0.2
VSCH | ≤ 0.2
YDRS | ≤ 0.2
MANC | ≤ 0.2
ACAT | ≤ 0.2
RWLY | ≤ 0.2
AVNP | ≤ 0.2
YCWS | ≤ 0.2
NQQC | ≤ 0.2
FLNF | ≤ 0.2
PPMH | ≤ 0.2

Variant | one-hybrid fitness for binding NBS DNA
SMLS | ≤ 0.2
DYDS | ≤ 0.2
LSNG | ≤ 0.2
GKMI | ≤ 0.2
PIVP | ≤ 0.2
QQIE | ≤ 0.2
AARD | ≤ 0.2
CSHW | ≤ 0.2
ATNS | ≤ 0.2
THFA | ≤ 0.2
TYQC | ≤ 0.2
QIIG | ≤ 0.2
YYKC | ≤ 0.2
QERL | ≤ 0.2
RFDM | ≤ 0.2
HDFG | ≤ 0.2
VKWF | ≤ 0.2
LTNI | ≤ 0.2
KLRY | ≤ 0.2
PQTI | ≤ 0.2
QRMW | 0.233
TGKF | ≤ 0.2
RGCD | ≤ 0.2
APDS | ≤ 0.2

Variant | one-hybrid fitness for binding NBS DNA
PDRE | ≤ 0.2
PSYR | ≤ 0.2
CQTS | ≤ 0.2
QRHC | 0.437
HYNS | ≤ 0.2
PMRV | ≤ 0.2
VMFF | ≤ 0.2
HATC | ≤ 0.2
LGRC | ≤ 0.2
RAVY | ≤ 0.2
PCTG | ≤ 0.2
RHER | 0.235
QNPE | ≤ 0.2
GLCW | ≤ 0.2
HQEL | ≤ 0.2
VQRK | ≤ 0.2
ENSK | ≤ 0.2
MALG | ≤ 0.2
ISCI | ≤ 0.2
YGPV | ≤ 0.2
NVTV | ≤ 0.2
RLSC | ≤ 0.2
RKSY | ≤ 0.2
PMRD | ≤ 0.2

Variant | one-hybrid fitness for binding NBS DNA
DGNC | ≤ 0.2
RWPT | ≤ 0.2
MQRS | ≤ 0.2
QCAR | 0.643
LMLL | ≤ 0.2
HHNY | ≤ 0.2
DLHL | ≤ 0.2
AIHH | ≤ 0.2
QDCP | ≤ 0.2
SCEE | ≤ 0.2
GEMW | ≤ 0.2
YRKY | ≤ 0.2
PLGH | ≤ 0.2
DYRY | ≤ 0.2
IGPF | ≤ 0.2
QDVT | ≤ 0.2
LCTK | ≤ 0.2
RTGR | 0.622
TAVM | ≤ 0.2
NVYW | ≤ 0.2
KFSD | ≤ 0.2
AHNP | ≤ 0.2
WSRF | ≤ 0.2
QTHR | 0.877

Variant | one-hybrid fitness for binding NBS DNA
GNDT | ≤ 0.2
QRDP | ≤ 0.2
HLGR | ≤ 0.2
KSKC | ≤ 0.2
LATK | ≤ 0.2
IVNV | ≤ 0.2
NRSS | ≤ 0.2
LESN | ≤ 0.2
QQNE | ≤ 0.2
DPHQ | ≤ 0.2
TFTC | ≤ 0.2
WMKC | ≤ 0.2
HAES | ≤ 0.2
WYQG | ≤ 0.2
EHKL | ≤ 0.2
DAAW | ≤ 0.2
IEHS | ≤ 0.2
VAAP | ≤ 0.2
KWCV | ≤ 0.2
RNEE | ≤ 0.2
PQHL | ≤ 0.2
LQCQ | ≤ 0.2
MGRG | ≤ 0.2
HRFI | ≤ 0.2

Variant | one-hybrid fitness for binding NBS DNA
IDVG | ≤ 0.2
GGHY | ≤ 0.2
TGCG | ≤ 0.2
SCGE | ≤ 0.2
HLIS | ≤ 0.2
VWLM | ≤ 0.2
VYTY | ≤ 0.2
HYQC | ≤ 0.2
TATH | ≤ 0.2
QHSW | ≤ 0.2
SRTC | ≤ 0.2
SMET | ≤ 0.2
QLIS | 0.207
SDGV | ≤ 0.2
VIIS | ≤ 0.2
TSID | ≤ 0.2
RRFI | ≤ 0.2
RRKG | 0.461
